Reference: the RNAGym collection of RNA variant scans (doi:10.7554/elife.90254)
The source gives no read counts; variants with many changes may rest on few reads.

B1: LINE1-mini (parent)
chain: GGCAGAGCUCAACACAGCGUGGCAAAGUGGCUGUGGCUAGACUGCC

Variants of: B1
Assay: self-cleavage, relative activity (ratio to wild type); higher = more cleavage; in vitro, sequencing; the parent is a self-cleaving ribozyme

Row | Variant | self-cleavage
1 | C8U C18A G40U U43G | 0.09
2 | C8U U28G U32C G35U C37G U38A | 0.06
3 | U9A C23A C37A | 0.11
4 | U9A A11G G17A U20C C31G | 0
5 | U9A C18G G19U C45U | 0.03
6 | U9C G17A G29C G33C G40C | 0.01
7 | C8U C23U U32G | 0.16
8 | U9C C10G A11G A14U C31U | 0.02
9 | U9A U28G A39C G40A | 0.04
10 | U9A C10U G30A | 0.05
11 | U9A A24U A25C C45U C46A | 0.03
12 | U9A G27C A41C | 0.05
13 | U9C G17C A39G C46G | 0.01
14 | C8U G33A C37A | 0.04
15 | C8U G33C G40U | 0.07
16 | U9A A12C C13A G29U | 0.02
17 | U9C C13G G33U C37A | 0.06
18 | U9A C10A U20A A24C G35A | 0.02
19 | C8U U32G C42U | 0.04
20 | C8U U20G A24C | 0.1
21 | U9C C13G G17A | 0.03
22 | U9A A12C G30U C31A C46U | 0.01
23 | U9C G35A G36C A41G C42A | 0.02
24 | C8U G17U A24C G35C G36C | 0.02

Row | Variant | self-cleavage
25 | U9A A24U A26G | 0.17
26 | U9C C15A U38G | 0.02
27 | C8U C15A C18U | 0.04
28 | U9A C10G A14C G17U A41C | 0.01
29 | U9C C31U U34C G40A | 0.01
30 | U9A G17U G19A | 0.02
31 | C8U G29A C45A C46G | 0.03
32 | U9A A12U U28G | 0.22
33 | C8U C18G A24C A39G C42G | 0.06
34 | C8U G21U U28G C31U G35U | 0.08
35 | U9C C10A A41G | 0
36 | C8U C15U A24C | 0.63
37 | U9C A12U C18U U38G | 0.02
38 | U9A C10G A26U U28G | 0.01
39 | U9C G17A G40A U43A | 0.01
40 | U9A A11U U20C C23G C45A | 0.02
41 | C8U C23A A26U G36C | 0.04
42 | C8U C15G U32C G44A | 0.14
43 | U9A A24C C31U | 0
44 | C8U G19C G44C | 0.04
45 | U9A C10G G19U A24C U28C | 0.03
46 | U9C C13A A24C G44A | 0.04
47 | U9C U20A C23A | 0
48 | U9A C13A C18U G27A G30C U32C | 0.03

Row | Variant | self-cleavage
49 | U9A U34A C37G | 0
50 | U9A A16G G35C G40C | 0.02
51 | U9A A14U G29A G40A | 0.13
52 | U9A G19C G40U | 0.06
53 | U9A U34G G35C | 0.06
54 | C8U C37G U38C | 0.16
55 | C8U G22A A41C | 0.07
56 | U9A G21A U34A | 0.04
57 | U9C G29U C45A | 0.07
58 | U9A G27A G36C G40A | 0.2
59 | U9A A24U G33C | 0.03
60 | C8U G22A G44A | 0.03
61 | C8U C31A U43A G44U C45U | 0.27
62 | U9A C13U G27U U34G | 0.13
63 | U9A C23U C37U C46G | 0.09
64 | U9C C15G G17C U34G G36A | 0.01
65 | U9A G27U G29A | 0.06
66 | U9A U28C G30C G36C U38A | 0.04
67 | U9A C10A C13G C15A G30U A39C G40U | 0.02
68 | C8U U9A C15A C31U | 0.52
69 | C8U C23G A26C | 0.1
70 | C8U G27C G35U | 0.13
71 | U9A U20C G21A G30U C37U | 0.03
72 | U9C A11U C37U | 0.02

Row | Variant | self-cleavage
73 | C8U U20A C23A A24G U38A | 0.02
74 | C8U G29U A39U C42A | 0.14
75 | C8U U9G G36C | 0.25
76 | U9A C31U G35U | 0
77 | U9C A12C G17A | 0.02
78 | U9C C18G G33U G44U | 0.11
79 | U9A C18G G30A G40U | 0.06
80 | U9A A12C A24G A25C G35A G40A | 0.04
81 | U9A C23A A24G | 0.24
82 | U9C A12C C45G | 0.01
83 | U9C A25U G36C | 0.01
84 | U9C G17C A39G | 0.02
85 | U9A A16U A25U | 0.02
86 | U9C C10A A12U | 0.02
87 | U9C A16U C18U | 0.02
88 | C8U C13U U28G G44C | 0.07
89 | U9C A16C U20G G22A G30A U34C U43A | 0
90 | U9C A12G G33C | 0.01
91 | U9A C15A G19C | 0.57
92 | C8U C18G C23U C46G | 0.07
93 | C8U U9C C46G | 0.01
94 | U9C C13A U34C C37G | 0.01
95 | U9A C10G A24U U28C | 0.03
96 | U9C G22C C23A | 0.01

Row | Variant | self-cleavage
97 | U9C C15A C18G | 0.02
98 | U9A C15U G29C | 0.12
99 | C8U C15G A26U | 0.02
100 | U9C G40A A41C U43C | 0.02
101 | U9A G35U C45A | 0.03
102 | C8U C18A C31A A41U | 0.08
103 | U9C C18U C46G | 0.02
104 | C8U C15G G30U | 0.04
105 | U9A G30C G40A | 0.15
106 | U9A G30C C31A G40A | 0.07
107 | U9C G35A C42U | 0.02
108 | U9A G29A C31A C45U | 0.15
109 | C8U C18A A26C | 0.2
110 | U9C G17U G19U G21A G29A | 0.02
111 | U9C G21C U32C C37G G40U | 0
112 | U9C C15U G30A C45U C46A | 0.1
113 | C8U G21U G27A G36C | 0.94
114 | U9C C10U A11C C13A C15U C23U A41U G44C | 0
115 | C8U U9A C15G C31U C37U U43C | 0.12
116 | C8U C15A G27C | 0.06
117 | U9A C13G A16G C31G U43G | 0.02
118 | C8U G27U G33U A39U | 0.02
119 | U9A C42G G44U | 0.04
120 | U9C A12U C31U G40C A41U | 0.06

Row | Variant | self-cleavage
121 | U9A G30U G40U | 0.02
122 | U9C G17U A41C | 0.01
123 | U9A G30C G35C C37U | 0.02
124 | U9A C23G U34A | 0.24
125 | U9C C13A A25G G30A U38G G44C | 0.01
126 | U9A G21U C31G | 0.02
127 | U9A A12U C18A | 0.08
128 | U9C C18G G29A G35A | 0.01
129 | U9A A11U A12U U43A | 0.02
130 | U9A A14U U43A | 0.21
131 | U9C A16U A24G A39G G44A | 0.03
132 | U9C A11C C31U | 0.05
133 | U9A A14C U20A | 0.07
134 | C8U G22A G29A G36C G40A C46G | 0.12
135 | U9C A16G A24U G35A | 0.02
136 | U9C A25C C42A U43C | 0.03
137 | U9C G17U G21C C37U | 0
138 | U9A A11U G22A | 0
139 | C8U G33U G36U C37U | 0.03
140 | U9C A24G C42A | 0.02
141 | U9C C13A A41U | 0.01
142 | C8U G17C G29A C31G A41G | 0.04
143 | U9A A12G A26G | 0.03
144 | C8U U28G C45A | 0.13

Row | Variant | self-cleavage
145 | U9A G21C U32C G33C | 0.05
146 | U9C C10U G44U | 0.03
147 | C8U G21A C42U | 0.6
148 | C8U C37G G40U | 0.04
149 | U9C A16U A24C | 0.01
150 | C8U G17A C18G G19U G22A G35U A41C | 0.02
151 | U9A C10U G17A G22C A24C | 0.02
152 | C8U U34C C46U | 0.03
153 | U9A C10U A25C A39C | 0.01
154 | U9A A12C G36U | 0.01
155 | U9A A41C C46A | 0.05
156 | C8U C15A U20G C23A C31U U32C | 0.02
157 | U9A G33A U43C | 0.08
158 | U9A G27U A39G | 0.03
159 | U9C C10U G17A A26G G30A C31A G36U | 0.02
160 | U9A C15U U34A | 0.19
161 | U9A G21A U28A U32C | 0.08
162 | U9A C23U U32C | 0.29
163 | U9A C10U A14U C18A C23U | 0.04
164 | C8U C37G A39C | 0.15
165 | C8U U20G C31A | 0.01
166 | U9A C10G U32G U43A C46U | 0.02
167 | U9C A25G G30U | 0.05
